Measured values as given in the supplement of paper PMC10126150.
Values marked as one replicate rest on one cluster of the flow cell; about a third of the high ones do not repeat.

Tested on: ATP
Assay: switch fluorescence ratio, 500 uM ATP over buffer (Cy3 cluster intensity, sum of 5 cycles each) (fold (ratio)); higher = stronger signal-on switching upon ATP binding; sequences stand for … in TCGTCGGCAGCGTCAGATGTGTATAAGAGACAGTTTTTTTTTTTTTTTTTTTTTTTTT…TC
Details: aptamer strand: ATP DNA aptamer (quencher-CACCTGGGGGAGTATTGCGGAGGAAGG + anchor), 100 nM annealed; ATP concentration: 500 uM; one replicate
Procedure, shortened: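 Exposure to 500 uM ATP lasted 15 min at 22 °C before imaging, and a selection-buffer image was taken beforehand, for Cy3-labelled switching-strand clusters on a modified Illumina MiSeq flow-cell annealed to 100 nM quencher-labelled ATP aptamer. Five buffer/ATP cycles were run with NaOH stripping and re-annealing between them. The fluorescence ratio per cluster is summed target-cycle over summed buffer-cycle Cy3 intensity, averaged per switch-domain sequence. Clusters outside 100-1000 RFU were excluded.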

Row | Sequence | switch fluorescence ratio
1 | CGCGCGGCCG | 1.1
2 | AGGATTATA | 1.01
3 | TTCGTTGGCA | 1.06
4 | GCAGCGTTGT | 1.02
5 | AGGCAAATAT | 1.03
6 | TAGGTCGGCG | 1.03
7 | TTTACGCCAT | 1.22
8 | CTGGAATCGC | 1.52
9 | TCTTGGTAA | 1.01
10 | TATTCATCTT | 0.992
11 | TCTGATATTG | 1.03
12 | GGTACAGTCT | 1.02
13 | GTTATCGGTA | 0.977
14 | GGGGGTAACG | 1.14
15 | AGTTTCTGAA | 0.984
16 | TATCCGTGTA | 1.04
17 | CACAGTAGGG | 1.03
18 | AGGGACGTCG | 0.975
19 | AACTACCGAG | 1.11
20 | TCCAAGGCTC | 1.08
21 | GCAAAACGCG | 1.01
22 | TAGCCGCCTA | 1.05
23 | GGGGTTTAGA | 0.983
24 | GGGACAAAGC | 0.99
25 | TTGAGAGGG | 1.02
26 | TCCCGTTTCG | 1.02

Row | Sequence | switch fluorescence ratio
27 | ACGTGCCGCC | 1.06
28 | ATGAGAGGTC | 1.02
29 | TTAGAGCTGC | 1.18
30 | GATTTATCAG | 1.04
31 | GCCTGAGCTT | 1.03
32 | GCCGTGGTGT | 1.09
33 | CTCTTCCTGT | 1
34 | TAGATATAGC | 0.98
35 | AATTAAGCTC | 0.98
36 | ATTATGCATT | 1.35
37 | GATGGGCCGT | 1.07
38 | CCGGGTTGC | 1.52
39 | GTAAGCCGTT | 1.03
40 | GTTTTTAAAT | 0.993
41 | TTTGTCATCA | 1.01
42 | CTACGTGGGG | 0.967
43 | CAACGGGAGG | 1
44 | GCCCGAAACG | 1.03
45 | TCCGGTCATA | 1.12
46 | AGAATACATA | 1.05
47 | TTTTATAGCC | 0.994
48 | TAAGTTGGT | 0.988
49 | TCTTAACGAA | 0.991
50 | TCAGAGACTT | 0.995
51 | TGACCAATAT | 1.57
52 | GGCCCCTAGC | 0.96

Row | Sequence | switch fluorescence ratio
53 | GACAAATTC | 0.984
54 | ATCCGCTAAA | 4.09
55 | GCACTTGCCA | 1.05
56 | TATTGGATAA | 0.948
57 | AAGAAACGAG | 1.02
58 | GCTCTAAAAG | 1.01
59 | CTCTTCAATG | 1.29
60 | CGATTGCCGA | 0.983
61 | TTAGTCGCCA | 0.947
62 | CACGGCCAT | 1.04
63 | GCCGTAAGGG | 0.97
64 | TATAAACATT | 1.05
65 | ATCAGAAAAG | 0.984
66 | ACATACATAA | 1.15
67 | GGGATAGTC | 0.971
68 | TCGGTGACCG | 0.988
69 | ACTCGGGAGA | 1.01
70 | TGCCAATGCG | 1.08
71 | CTTAGCGAAG | 0.995
72 | GCATTCGTTC | 1.06
73 | GTCGGACTTG | 0.976
74 | TTGTGCACGG | 1.02
75 | ATTGATTAC | 1.03
76 | CTTTAACTTG | 1.06
77 | CATATAGGGA | 0.997
78 | CCACTGTCGA | 1.21

Row | Sequence | switch fluorescence ratio
79 | TCCAGGCGCA | 1.4
80 | TCGCCTTAAG | 0.981
81 | AACAACTAGG | 1.05
82 | ACCGCTTGAG | 1.03
83 | GCCAGTGTCG | 1.06
84 | TAGGAGTAGG | 1.06
85 | GATCTATTT | 1.04
86 | CTGAGCACTC | 1.85
87 | AAAAGCGAGA | 0.972
88 | CCAGGATCTT | 1.02
89 | ACTTAAGTAT | 1.02
90 | GATTGGAAAA | 1.01
91 | CAGGAATCTT | 0.975
92 | AGATAGTGTC | 1.04
93 | CTCCTAAATT | 1.26
94 | ATAATTACGT | 1.04
95 | AATGAAGGGT | 0.983
96 | GACAGCGTTC | 1.09
97 | TACTCGTGTA | 1.02
98 | ATTTTCGCCT | 0.963
99 | TGTGTGGC | 1.03
100 | GGTGGGTTT | 1.01
101 | TCCGTGCACT | 1.35
102 | AGCTGGTCCC | 1.11
103 | ATACTGTGAT | 1.07
104 | GATGCTATGC | 1.37

Row | Sequence | switch fluorescence ratio
105 | ATACGGGTGT | 1.06
106 | ACAATCGAGG | 1.08
107 | TACTTTGTCA | 1.01
108 | ACCAGTTGGC | 1.01
109 | TCCGCTCTTT | 1.15
110 | TAAGATGAGG | 0.96
111 | TTTGCACCTT | 1.09
112 | GATCGAATGG | 1.04
113 | TTATGGTTTC | 0.986
114 | CGCAGCTTTT | 1.79
115 | TTGCGGGCGA | 1.01
116 | GTTAGTAGTT | 1.02
117 | GATCGCAGAT | 1.02
118 | TTGGTTGCGC | 1.01
119 | CTATATGTGG | 1.04
120 | TTGAAGGTCG | 1.02
121 | TTGGATTTCC | 1.07
122 | TGAGTATTCC | 1.05
123 | AAGTAGTTAA | 1.05
124 | AATGAGTTAA | 0.946
125 | CCTAATTAAT | 1
126 | AGTCAGCATG | 1.03
127 | GTTACGTTCC | 2.3
128 | GCTGCGCTGT | 1.37
129 | GGTATCCCTC | 1.06
130 | GTTTCCGGGA | 1.19

Row | Sequence | switch fluorescence ratio
131 | AACGCCTAGG | 1.04
132 | CGCAGCCCCG | 1.2
133 | ACCTTAAATT | 1.11
134 | CTGAAGGG | 1.06
135 | ATGCGTCATA | 1.01
136 | GCCTATTGA | 0.929
137 | TAAATGCACA | 1.04
138 | AAGGACTTGT | 0.972
139 | ACAATTGGGC | 0.943
140 | AGTTTCTAGC | 0.981
141 | TGTAAATAGG | 0.971
142 | TCACATG | 0.997
143 | CCATCCGAGC | 2.18
144 | CGGGGGTTCC | 1.02
145 | CGTGACTCTC | 1.02
146 | TTACGAGCAT | 1.45
147 | ATGTATGGGG | 0.927
148 | TATAAACGTT | 0.98
149 | GGACGAAAAG | 1
150 | GGGGCGGACC | 1.03
151 | CATGCCCCTG | 1.08
152 | GGTTTAGCC | 0.955
153 | TTATCTCATC | 0.968
154 | TATCTTACGT | 1
155 | GAGTTTCCC | 0.993
156 | AGGAGAACAG | 1

Row | Sequence | switch fluorescence ratio
157 | GGTGGTGACA | 0.96
158 | GATTTTTCGA | 0.989
159 | ATCTGATGT | 1.03
160 | GACGTGACCA | 1.3
161 | AGAAAGGCTG | 1
162 | CTGGCAGTTT | 0.974
163 | CTTATGGAGA | 1.02
164 | TCACCTACGA | 1.46
165 | TAATGTTGTA | 1.12
166 | TTATAAGAGA | 0.979
167 | TTGAGAGCAC | 1.01
168 | ATAGAGTTGG | 0.973
169 | CGCAGGGGCC | 1.07
170 | TCTTACGCCT | 1.01
171 | GACTCGGTTG | 0.959
172 | CTGAAGGTTT | 1.03
173 | CGAGGTGTAA | 0.948
174 | GCGTATGGGC | 1.01
175 | GGATAAGAGG | 1
176 | TACGACCAAC | 1.76
177 | TTGTTTCATA | 0.972
178 | GTTGATTTCG | 1.09
179 | TCATAAGTCG | 0.947
180 | CAGGCCATGA | 1.09
181 | GAAAAACGCC | 1.44
182 | GTTCGAACGT | 1.02

Row | Sequence | switch fluorescence ratio
183 | CTCTACTCGC | 1.12
184 | GGGGTCTTG | 1.02
185 | TGCACTTGCT | 1.07
186 | TTAGACCCCC | 1.53
187 | CCGTCTAGGG | 1.05
188 | CTATATTCTT | 0.983
189 | CACTATATCT | 1.12
190 | GTAAGATATC | 1.03
191 | CCACTAATTT | 0.96
192 | CAATGTTTA | 1.07
193 | TATGGTTAAC | 1.04
194 | TGCGAATACA | 1.15
195 | GGTTTGGTCC | 0.973
196 | TTGGTGCGGT | 0.976
197 | GGTATGAGTC | 0.965
198 | TTAAGGGCCT | 1.01
199 | CTTAGGCTGG | 0.997
200 | CTCCATCATA | 1.42
201 | ATGGCAGAGG | 0.995
